Data from a collection of fitness landscapes (doi:10.1126/science.1257360).
The other results are listed elsewhere or left out.

B1: PhoQ; a variant is named by its letters at X, in order, P23837 (parent)
chain: MKKLLRLFFPLSLRVRFLLATAAVVLVLSLAYGMVALIGYSVSFDKTTFRLLRGESNLFYTLAKWENNKLHVELPENIDKQSPTMTLIYDENGQLLWAQRDVPWLMKMIQPDWLKSNGFHEIEADVNDTSLLLSGDHSIQQQLQEVREDDDDAEMTHSVAVNVYPATSRMPKLTIVVVDTIPVELKSSYMVWSWFIYVLSANLLLVIPLLWVAAWWSLRPIEALAKEVRELEEHNRELLNPATTRELTSLVRNLNRLLKSERERYDKYRTTLTDLTHSLKTPLXXLQXXLRSLRSEKMSVSDAEPVMLEQISRISQQIGYYLHRASMRGGTLLSRELHPVAPLLDNLTSALNKVYQRKGVNISLDISPEISFVGEQNDFVEVMGNVLDNACKYCLEFVEISARQTDEHLYIVVEDDGPGIPLSKREVIFDRGQRVDTLRPGQGVGLAVAREITEQYEGKIVAGESMLGGARMEVIFGRQHSAPKDE

Variants of: B1
Assay: enrichment ratio after two sorts for PhoP signalling (ratio (wild type AVST 3.29)); higher = more functional
Conditions: with PhoP (E. coli)

| Variant | enrichment ratio |
| --- | --- |
| LWHK | ≤ 0.25 |
| HMKM | ≤ 0.25 |
| PCNK | ≤ 0.25 |
| RNWP | ≤ 0.25 |
| VPDP | ≤ 0.25 |
| GAAI | ≤ 0.25 |
| GPPN | ≤ 0.25 |
| DWHQ | ≤ 0.25 |
| ARSQ | ≤ 0.25 |
| PRMH | ≤ 0.25 |
| DQFQ | ≤ 0.25 |
| GKRH | ≤ 0.25 |
| LPMG | ≤ 0.25 |
| LSFR | ≤ 0.25 |
| NQDY | ≤ 0.25 |
| TNHE | ≤ 0.25 |
| MGCC | ≤ 0.25 |
| DHID | ≤ 0.25 |
| YPTE | ≤ 0.25 |
| SIEW | ≤ 0.25 |
| VCFE | ≤ 0.25 |

| Variant | enrichment ratio |
| --- | --- |
| QPSA | ≤ 0.25 |
| GRVD | ≤ 0.25 |
| SHVN | ≤ 0.25 |
| IYIR | ≤ 0.25 |
| QEKP | ≤ 0.25 |
| GQDH | ≤ 0.25 |
| IEME | ≤ 0.25 |
| LKEL | ≤ 0.25 |
| DGEF | ≤ 0.25 |
| EPRD | ≤ 0.25 |
| VVGF | ≤ 0.25 |
| SLNA | ≤ 0.25 |
| WCKI | ≤ 0.25 |
| NCDA | ≤ 0.25 |
| PYHS | ≤ 0.25 |
| SPEH | ≤ 0.25 |
| GISW | 1.18 |
| KRSV | ≤ 0.25 |
| SEQF | ≤ 0.25 |
| VKPS | ≤ 0.25 |
| RMFY | ≤ 0.25 |

| Variant | enrichment ratio |
| --- | --- |
| YHQM | ≤ 0.25 |
| IKIV | ≤ 0.25 |
| GKPC | ≤ 0.25 |
| VTPW | ≤ 0.25 |
| KINL | ≤ 0.25 |
| QQAQ | ≤ 0.25 |
| SMEY | ≤ 0.25 |
| QLTK | ≤ 0.25 |
| QVVP | ≤ 0.25 |
| YLTQ | ≤ 0.25 |
| YCDC | ≤ 0.25 |
| RWCM | ≤ 0.25 |
| TSRG | 0.388 |
| PYSH | ≤ 0.25 |
| MGER | ≤ 0.25 |
| GIGT | ≤ 0.25 |
| NTWW | ≤ 0.25 |
| HFCS | ≤ 0.25 |
| KVCY | ≤ 0.25 |
| MHQQ | ≤ 0.25 |
| YKNC | ≤ 0.25 |

| Variant | enrichment ratio |
| --- | --- |
| AIAA | 9.24 |
| TMNG | 10.4 |
| ILTT | ≤ 0.25 |
| CIQH | ≤ 0.25 |
| GKMC | ≤ 0.25 |
| AYPK | ≤ 0.25 |
| EEGH | ≤ 0.25 |
| SPQM | ≤ 0.25 |
| YMMT | ≤ 0.25 |
| DAKA | ≤ 0.25 |
| PLKY | ≤ 0.25 |
| FSYR | ≤ 0.25 |
| WQHK | ≤ 0.25 |
| VCWN | ≤ 0.25 |
| DTCQ | ≤ 0.25 |
| GAVY | ≤ 0.25 |
| TAIY | ≤ 0.25 |
| RYPL | ≤ 0.25 |
| KQEF | ≤ 0.25 |
| NWLY | ≤ 0.25 |
| VAIV | ≤ 0.25 |
